Data as given in PubChem BioAssay AID1347120 (National Center for Advancing Translational Sciences (NCATS), 2019).
Out of some 390,000 compounds screened, about 930 (0.24%) were called active. The inconclusive results got no clear call from the source; some entries with a clear call stand among them for comparison. Calls come from the whole dose curve; as a rule, active = well fitted activation curve with a large enough effect; inconclusive = small, poorly fitted or top-dose-only effect; inactive = no such curve, though single readings can be large or run the other way. Where the call is inconclusive, the potency comes from a doubtful curve fit.

Assay: qHTS for Suppressors of FUS Proteinopathy: Primary screen using FUS-linked yeast assay; note: nearly all actives have a fitted effect of over 55% in size;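 for growth rescue (activation): plate controls were DMSO vehicle for no effect and reference control for full effect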
Conditions: S. cerevisiae FUS-expressing, OD600, 24 h; Potency: growth rescue; growth rescue (activation): at 76.6 µM (top of the series)
How it was run: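 Steps: raffinose overnight preculture; dilution to OD 0.005 in 2% galactose minimal medium; compound addition (concentration series); 24hr at 30C, 99% humidity; absorbance read at 600 nm.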
Potency is the fitted concentration of half-maximal effect; tags give direction and shape of the fitted curve.

| SMILES | growth rescue (activation) | Potency |
| --- | --- | --- |
| C=C(C)Cc1c(C)c(C#N)c2nc3ccccc3n2c1N1CCCCC1 | inactive: 15.3% | – |
| CCCCOCCCNC(=O)C[C@@H]1C[C@@]2(C(=O)OC)CC(C)(C)CC=C2N(CCc2ccc(OC)c(OC)c2)C1=O | – | inconclusive: 5.62 µM [activator, full curve] |
| C=C(CC)C(=O)c1ccc(OCC(=O)O)c(Cl)c1Cl | inactive: -29.8% | – |
| CC(/C=C/c1ccco1)=N/NC(=O)c1ccccc1Cl | – | inconclusive: 50.1 µM [activator, single point] |
| CC(=O)Nc1ccc(S(=O)(=O)N(C)c2ccc(OCC(=O)OCC(=O)Nc3ccc(OC(F)F)cc3)cc2)cc1 | – | inconclusive: 25.1 µM [activator, partial curve, poor fit] |
| Cc1ccc(C)c(OCCn2c(C3CC(=O)N(Cc4ccc(F)cc4)C3)nc3ccccc32)c1 (stereo not drawn) | – | inconclusive: 20 µM [activator, single point] |
| NC(=O)[C@@H]1CC2(CC(c3cccc(NC(=O)CC(c4ccccc4)c4ccccc4)c3)=NO2)CN1C(=O)c1ccc(Cl)cc1 (stereo partly drawn) | – | active: 28.2 µM |
| CN1c2ccc([N+](=O)[O-])cc2C(C)(C)C12C=Cc1cc(C(=O)O)ccc1O2 (stereo not drawn) | – | inconclusive: 25.1 µM [activator, single point] |
| c1coc(CN=C2NC(=NCc3ccco3)c3ccccc32)c1 | inactive: 10% | – |
| Cc1ccc2[nH]c3c(Cl)ncnc3c2c1 | inactive: 9.37% | – |
| CCOC(=O)C1CCCN(c2nc3c(S(=O)(=O)c4ccc(Br)cc4)nnn3c3ccsc23)C1 (stereo not drawn) | – | inconclusive: 11.2 µM [activator, partial curve, poor fit] |
| O=C(NCc1ccccc1)Nc1ccccc1C(=O)N1CCCC1 | inactive: 4.82% | – |
| O=C(c1ccco1)N1CCN(c2nc3c(F)cc(F)cc3s2)CC1 | inactive: 7.36% | – |
| O=c1c2ccccc2nc(N2CCN(c3ccccc3)CC2)n1Cc1ccccc1 | – | inconclusive: 31.6 µM [activator, single point] |
| COc1ccc(-c2nnc(SCC(=O)Nc3cc(OC)ccc3OC)nc2-c2ccc(OC)cc2)cc1 | – | inconclusive: 50.1 µM [activator, single point] |
| COc1ccccc1CN(Cc1cc2cc(C)ccc2[nH]c1=O)Cc1nnnn1Cc1ccco1 | – | active: 15.8 µM |
| NNC(=O)CN1C(c2ccc(Cl)cc2)=Nc2ccc(Br)cc2C1c1ccccc1 (stereo not drawn) | – | inconclusive: 25.1 µM [activator, partial curve, poor fit] |
| C=CCN1C(=O)[C@@H](CC(=O)NCCC(C)C)[C@]2(C(=O)OCC)CCCCC/C=C/12 | – | inconclusive: 4.47 µM [activator, partial curve] |
| Cc1cccc(CCNC(=O)c2ccc3c(c2)nc2n3CCC(C)C2)c1 (stereo not drawn) | inactive: -6.88% | – |

| SMILES | growth rescue (activation) | Potency |
| --- | --- | --- |
| O=C(OCc1ccccc1)[C@H](Cc1ccccc1)NC(=O)[C@@H]1CC=C[C@@H]2CCN(CCc3ccccc3)C(=O)[C@@H]21 | – | inconclusive: 12.6 µM [activator, partial curve, poor fit] |
| COc1ccccc1NC(=O)Nc1nc(CC(=O)N2CCN(c3ccccc3F)CC2)cs1 | – | active: 28.2 µM |
| COc1ccc(C(CC(=O)N2CCN(c3ccccc3)CC2)c2c(OC)cc(OC)c3ccc(=O)oc23)cc1 (stereo not drawn) | – | inconclusive: 35.5 µM [activator, single point] |
| Cc1cc2nnc(SCC(=O)Nc3cc(S(=O)(=O)N4CCOCC4)ccc3Cl)n2c2ccccc12 | – | inconclusive: 17.8 µM [activator, single point] |
| CCc1ccc(NC(=O)COC(=O)CCCC2=NS(=O)(=O)c3ccccc3N2)cc1 | – | inconclusive: 31.6 µM [activator, single point] |
| CN(c1ccc(S(=O)(=O)N2CCOCC2)cn1)C1CCCCC1 | – | inconclusive: 0.891 µM [activator, full curve, poor fit] |
| COc1ccc(Nc2nc(Nc3ccc(OC)cc3)nc(SC3=NCCS3)n2)cc1 | – | inconclusive: 25.1 µM [activator, partial curve, poor fit] |
| COc1cccc(C(=O)Nc2ncc3c(n2)CC(c2ccc(OC)cc2OC)CC3=O)c1 (stereo not drawn) | – | inconclusive: 20 µM [activator, partial curve] |
| Cn1ccc(C(=O)OCC(=O)c2ccccc2)n1 | – | inconclusive: 0.891 µM [activator, full curve, poor fit] |
| O=C(Nc1ccc2c(c1)OCCO2)C1CCN(c2nnnn2-c2ccccc2)CC1 | inconclusive: 64.5% [activator] | – |
| Cn1cc(S(=O)(=O)N2CCCCCC2)cc1C(=O)N1CCN(c2cccc(C(F)(F)F)c2)CC1 | – | inconclusive: 25.1 µM [activator, partial curve, poor fit] |
| CCC(=O)N1CCc2cc(Br)cc(S(=O)(=O)N3CCCC(C(=O)NCc4ccc(F)cc4)C3)c21 (stereo not drawn) | – | inconclusive: 10 µM [activator, partial curve, poor fit] |
| CCOC(=O)[C@@]12CCCC3=C1N(CCC3)C(=O)[C@H]2CC(=O)N1CCN(C(=O)C2CC2)CC1 | inactive: -17.7% | – |
| CCc1ccc(NC(=O)CSc2ccc(-c3cccnc3)nn2)cc1 | – | inconclusive: 39.8 µM [activator, partial curve, poor fit] |
| Nc1cc(=O)[nH]c(SCC(=O)N2CCC(Cc3ccccc3)CC2)n1 | – | inconclusive: 14.1 µM [activator, partial curve, poor fit] |
| N#Cc1c(Oc2ccc3ccccc3c2)sc(C(=O)c2ccccc2)c1N | inactive: -21.7% | – |
| C[C@H](CO)N1C[C@H](C)[C@@H](CN(C)C(=O)Nc2ccc(C(F)(F)F)cc2)Oc2ccc(NC(=O)NC3CCCCC3)cc2C1=O | – | inconclusive: 35.5 µM [activator, single point] |
| COc1ccc(C(=O)Nn2c(SCc3ccc([N+](=O)[O-])cc3)nc3ccccc3c2=O)cc1 | – | inconclusive: 15.8 µM [activator, partial curve, poor fit] |
| CCOc1ccc(CCN2C(=S)N([C@@H](Cc3ccccc3)CN3CCC[C@@H]3CN3C(=S)NC[C@@H]3Cc3ccc(O)cc3)C[C@@H]2CC(C)C)cc1 | – | inconclusive: 44.7 µM [activator, single point] |
